Assay results: the supplement of paper PMC3724861
Some of the results follow.

test system: T1, Caupolican (Caup) homeodomain DNA-binding domain; experiment: PBM E-score (8-mer, recovered from the published 9-mer minima) (E-score (dimensionless, -0.5 to 0.5)); Drosophila protein; higher = stronger relative binding preference, active = 0.31 or more
T1 sequence: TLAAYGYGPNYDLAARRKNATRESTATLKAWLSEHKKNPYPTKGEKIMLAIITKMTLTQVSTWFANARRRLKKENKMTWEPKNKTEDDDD
Outline: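 Caup's homeodomain DNA-binding domain (residues 214-303) was made by in vitro transcription and translation and applied at 100 nM to custom-designed protein binding microarrays. Each value is an enrichment score that gives relative binding preference for a short DNA word, with higher meaning stronger. The 8-mer values were recovered from published 9-mer scores, each of which was the minimum of its two constituent 8-mer scores. A cutoff of 0.31 marks candidate sites.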

| Sequence | PBM E-score |
| --- | --- |
| GCATCGCC | inactive: -0.154 |
| GACCGAAC | inactive: -0.0312 |
| ATGAGACA | inactive: 0.189 |
| AGTGCGTG | inactive: -0.0479 |
| TTACTGAA | inactive: 0.0619 |
| CCGTATGA | inactive: 0.0605 |
| GTACACGA | active: 0.427 |
| ATAGATAC | inactive: 0.135 |
| GACATTCA | inactive: 0.124 |
| CGCGCTGA | inactive: -0.115 |
| AGCAGTCC | inactive: -0.125 |
| CCGGTTTC | inactive: -0.117 |
| GAAAAAAA | ≥ 0.0868 |
| AGGCCCTG | inactive: -0.09 |
| GACAAATC | inactive: 0.189 |
| CTAAGACA | inactive: 0.176 |
| CGCCTTAC | inactive: -0.0507 |
| GAAAAGAC | inactive: 0.042 |
| CAAAAGGG | inactive: -0.0805 |
| TCTGCTCA | inactive: -0.0318 |
| CAATCGAG | inactive: -0.0637 |
| GCGCTGCC | inactive: -0.257 |
| GAAATGCA | inactive: 0.0706 |
| CTGCTATA | inactive: -0.00397 |
| GCGTGACA | inactive: 0.211 |

| Sequence | PBM E-score |
| --- | --- |
| CCTAAGCA | inactive: -0.103 |
| CATTCCCC | inactive: -0.142 |
| CGGTTTTA | inactive: 0.0649 |
| ACCATGTC | active: 0.408 |
| CGCTGGAA | inactive: -0.167 |
| GGAAGTAA | inactive: 0.0849 |
| CGACGGCA | inactive: -0.0558 |
| AAGCTCTA | inactive: -0.0108 |
| ATCACGGG | inactive: -0.141 |
| CCGAATTC | inactive: -0.0114 |
| GGTAATTA | inactive: 0.125 |
| GACATGAC | active: 0.394 |
| AGATAACG | inactive: 0.101 |
| GGATTAGA | inactive: -0.0283 |
| CACTACGA | inactive: 0.0511 |
| GAAGCTGA | inactive: -0.0436 |
| GCACCGAC | inactive: -0.014 |
| AGTTTTTG | ≥ 0.122 |
| GATTTACA | inactive: 0.246 |
| CATAATGC | inactive: 0.0196 |
| CACTGTAC | inactive: 0.055 |
| ACGTTGCT | inactive: 0.0384 |
| GAACGACA | inactive: 0.217 |
| GCCTCCCA | inactive: -0.246 |
| GGCAGGAC | inactive: -0.136 |

| Sequence | PBM E-score |
| --- | --- |
| CCGTACCA | inactive: -0.0768 |
| CGTTACCA | inactive: 0.17 |
| CTTATTTC | inactive: 0.132 |
| ATTACTTA | inactive: 0.164 |
| CTAAAGAG | inactive: -0.0699 |
| CTAGACGC | inactive: -0.109 |
| CCCCGACG | inactive: -0.152 |
| CATAGCAC | inactive: 0.225 |
| CGGTGACA | inactive: 0.223 |
| AACATGTG | active: 0.402 |
| CTAAACAG | inactive: 0.0191 |
| AACCCGCG | inactive: -0.0635 |
| CATCACTA | inactive: 0.208 |
| GAATCATA | inactive: 0.136 |
| AAAAGTGC | inactive: -0.0227 |
| CCGGTTTA | inactive: -0.0443 |
| AGGCCAGA | inactive: -0.105 |
| CATTTAAA | inactive: 0.135 |
| CCACCGGG | inactive: -0.284 |
| GTCATAAC | inactive: 0.172 |
| ACAGGCCC | inactive: -0.136 |
| AACTAAAT | inactive: 0.0946 |
| AATCACCA | inactive: 0.105 |
| CCACTTTC | inactive: -0.0779 |
| TCGTGCCA | ≥ -0.0298 |

| Sequence | PBM E-score |
| --- | --- |
| AGTGGCGG | inactive: -0.19 |
| CGAACCGA | inactive: -0.0372 |
| TAGCTCCA | inactive: -0.0294 |
| CAGCCCAA | inactive: -0.0743 |
| CCCACTGC | inactive: -0.194 |
| GGCCACGA | inactive: -0.203 |
| CGAATGGC | inactive: -0.138 |
| TCGGCCAA | inactive: -0.102 |
| CAGGGACG | inactive: -0.0563 |
| AGATACGA | inactive: 0.122 |
| ATGGGCTG | inactive: -0.0443 |
| CACTAGCA | inactive: 0.111 |
| GTAACGAC | inactive: 0.0908 |
| TACCAAAA | inactive: 0.104 |
| CATTCTTC | inactive: 0.0867 |
| ATTACGAG | inactive: 0.171 |
| CCGGTCCC | inactive: -0.268 |
| CTCTTAGA | inactive: -0.0856 |
| AGAAAAAC | inactive: 0.0686 |
| TCGTCACA | ≥ 0.089 |
| CCATCCCC | inactive: -0.241 |
| ACATCATA | active: 0.318 |
| CACATGCG | inactive: 0.023 |
| AGCGTGGG | inactive: -0.256 |
| AATTAGCC | inactive: -0.0208 |

| Sequence | PBM E-score |
| --- | --- |
| AGATTATG | inactive: 0.0903 |
| ACGGTTTG | inactive: -0.0137 |
| AACTTGCA | inactive: 0.102 |
| GCCCCTGA | inactive: -0.167 |
| CCGTGAAA | inactive: -0.0526 |
| CTTTACTA | inactive: 0.109 |
| CGGGATCC | inactive: -0.132 |
| ATAAGTAA | inactive: 0.143 |
| CCTCTTCA | inactive: -0.0999 |
| GTGAGCCA | ≥ -0.0599 |
| CAATGGAA | inactive: -0.0452 |
| ATAAATAA | ≥ 0.221 |
| CTAGGCAC | inactive: -0.0927 |
| GTACCTCA | inactive: 0.136 |
| CTCGCGAA | inactive: -0.0996 |
| AAAGGAAG | inactive: -0.0802 |
| GCCTGATA | inactive: -0.0429 |
| AGCATCAT | inactive: 0.146 |
| ACATACCG | inactive: 0.127 |
| GACCACTC | inactive: -0.0383 |
| AGCTCGCA | inactive: -0.169 |
| AACTCGCT | inactive: -0.0482 |
| TACGATAA | inactive: 0.149 |
| CAAATTTC | inactive: 0.0393 |
| GAGCCAGA | inactive: -0.0571 |

| Sequence | PBM E-score |
| --- | --- |
| ACAGTCTG | inactive: 0.0152 |
| GAGAGCCC | inactive: -0.275 |
| GATTTGAA | inactive: 0.171 |
| CCGTCAAA | inactive: -0.0594 |
| CGGATAGC | inactive: -0.0897 |
| TCGCCCGA | inactive: -0.118 |
| ACTAAGGA | inactive: -0.0534 |
| TACTCAGA | inactive: 0.00964 |
| ACATCGAT | inactive: 0.269 |
| ATTAGAGC | inactive: 0.0699 |
| GGAAATTA | inactive: 0.145 |
| CTCAGTCA | inactive: -0.00826 |
| AGCTGGTA | inactive: -0.0349 |
| GACACGCC | inactive: 0.148 |
| GTGGAGGA | inactive: -0.108 |
| CTGACTGC | inactive: -0.0466 |
| ACGGGCGG | inactive: -0.266 |
| ATCCGTCA | inactive: -0.0102 |
| AAGTTTCT | inactive: 0.00308 |
| ATTTCCTA | ≥ 0.128 |
| TCAGCAAA | inactive: 0.0389 |
| AAGCTTTC | inactive: -0.0748 |
| TCGACTCA | inactive: 0.0588 |
| CAAGCCGG | inactive: 0.00547 |
| ACGCCTAT | inactive: -0.0451 |

| Sequence | PBM E-score |
| --- | --- |
| GAGAGCGC | inactive: -0.205 |
| CGCGACCG | inactive: -0.128 |
| GAAATTAC | inactive: 0.148 |
| GCAGCTAA | inactive: -0.112 |
| CGCAGTAA | inactive: -0.025 |
| ATCTGCAG | inactive: 0.0615 |
| AGTTCGGG | inactive: -0.0886 |
| GCATCGTA | inactive: -0.088 |
| GCAGTCTA | inactive: 0.0232 |
| CAGCTTGC | inactive: -0.0868 |
| GCGAACGC | inactive: -0.108 |
| CTAGCAGC | inactive: -0.0489 |
| TAAGTTCA | inactive: 0.0196 |
| CACTGTTC | inactive: 0.107 |
| ATATACAG | inactive: 0.186 |
| ACTAGTTC | inactive: 0.205 |
| ACCCCTTG | inactive: -0.145 |
| CCAGATTA | inactive: 0.0323 |
| ATGTTACA | active: 0.406 |
| AAAAGTAC | inactive: 0.155 |
| GGTTAGTA | ≥ 0.192 |
| ACACGGAA | inactive: 0.291 |
| CGGGCAAA | inactive: -0.0392 |
| AGGCTTTA | inactive: -0.0555 |
| ATCCTTAC | inactive: 0.0786 |

| Sequence | PBM E-score |
| --- | --- |
| ATAGATGA | ≥ 0.0985 |
| CAGAGCCA | inactive: -0.133 |
| ATCGATAA | inactive: 0.205 |
| ACCCGTGG | inactive: -0.246 |
| CTCGACAA | inactive: 0.174 |
| GTTTTGGA | ≥ 0.158 |
| AACCTACG | inactive: 0.0502 |
| CAATATGG | inactive: 0.101 |
| CGTAAGAG | inactive: 0.0163 |
| GCTAAGAA | inactive: -0.0875 |
| ACCATACA | ≥ 0.204 |
| TATGGAGA | inactive: -0.0233 |
| CCTGAATC | inactive: -0.00571 |
| GAATGATC | inactive: 0.0856 |
| ACGTACCG | inactive: -0.0209 |
| CGTTCGTA | inactive: 0.068 |
| AGGTACCT | inactive: -0.0585 |
| GCTATAAA | inactive: 0.105 |
| CTTAGCAC | inactive: -0.0372 |
| GTTGTTAA | active: 0.349 |
| AGCCGGCT | inactive: -0.209 |
| CTTAGCCC | inactive: -0.0843 |
| AGGATCTG | inactive: 0.0245 |
| AGTTAGTA | inactive: 0.0941 |
| ACTGCTAC | inactive: 0.142 |

| Sequence | PBM E-score |
| --- | --- |
| GACGAAAA | inactive: 0.0444 |
| CGTTAGCA | inactive: 0.0587 |
| GGTTTCCA | inactive: -0.0201 |
| AGCATCGG | inactive: -0.0375 |
| CCCTAGAC | inactive: -0.148 |
| AGTCCCTG | inactive: -0.0879 |
| AATGTAGG | inactive: 0.116 |
| CGCTGTTC | inactive: 0.0888 |
| CTGTTTGA | inactive: 0.188 |
| GACTTCGC | inactive: -0.121 |
| AGCTGTGG | inactive: -0.0855 |
| CCTAAACG | inactive: -0.104 |
| GCTCCCTA | inactive: -0.203 |
| GCTCGGAA | inactive: -0.114 |
| GTAAAAAC | inactive: 0.232 |
| GCGCGAAA | inactive: -0.0661 |
| ACCGAACG | inactive: -0.0785 |
| AGGCTACG | inactive: -0.15 |
| AGTTTTAA | inactive: 0.0261 |
| CCTGTGGC | inactive: -0.185 |
| AAGCCTGG | inactive: -0.169 |
| ATGGATCA | inactive: 0.0862 |
| AACAGGCT | inactive: 0.114 |
| CACAAGAC | inactive: 0.0913 |
| CATATCCA | inactive: 0.0717 |
